# In the supplement of paper PMC4723716:
# In all, about 3,600 compounds were measured (“viability index relative to DMSO control”: median about 0.81, lowest 2% from about 0.13 on). The list shows a part of the results.
# Tested on: Plasmodium falciparum NF54 stage V gametocytes
# Assay: viability index relative to DMSO control (fraction); higher = less gametocyte killing
# Details: 1.25 µM, incubation time: 72 h
# 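Further: 384-well serum-free SaLSSA: MitoTracker Red CMXRos staining with saponin lysis, high-content imaging, treated-well particle count divided by plate-mean count of DMSO wells.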
row,SMILES,viability index
1,CN(CCCNc1ccnc2cc(Cl)ccc12)C(=O)COc1ccc(Cl)cc1,0.595
2,Cn1nc(C(=O)NCc2ccccc2)c2c1CCN(Cc1cccc(O)c1)C2,1.27
3,COc1ccc(NC(=O)C2=C(C)NC(=S)NC2c2ccc(O)cc2)cc1 (stereo unspecified),0.878
4,CCOC(=O)C1=C(C)NC2=C(C(=O)CC(c3ccc(OC)c(OC)c3)C2)C1c1ccccc1C (stereo unspecified),0.463
5,Cc1[nH]c2ccccc2c(=O)c1Br,0.596
6,COc1cc(OC)c(NC(=O)C2c3ccccc3C(=O)N(C)C2c2cccs2)cc1Cl (stereo unspecified),0.546
7,CCOC(=O)c1cnc2ccc(Cl)cc2c1Nc1ccc(OC)c(OC)c1,0.977
8,Cn1c(=O)[nH]c(=O)c2c1nc(N1CCCCCC1)n2CC(O)COc1ccc([N+](=O)[O-])cc1 (stereo unspecified),0.942
9,CCCSCCCNC(=O)c1oc2c(c1C)-c1[nH]ncc1CC2,0.714
10,Cc1ccc(-n2nnnc2SCc2nc(-c3cccc([N+](=O)[O-])c3)no2)c(C)c1,0.78
11,COc1ccc2[nH]c3c(NCCN4CCCCC4)ncnc3c2c1,1.04
12,S=C(NN=Cc1ccccn1)NC1CC2CC1C1C=CCC21 (stereo unspecified),0.397
13,O=C(CN1CCCC1)Nc1ccc(Cc2ccc(NC(=O)CN3CCCC3)cc2)cc1,0.914
14,Clc1ccc(C2Nc3ccc4ccccc4c3C3C=CCC32)c(Cl)c1 (stereo unspecified),0.913
15,O=C(NNC(=O)c1csnn1)c1ccc(C(F)(F)F)cc1,0.815
16,CCN1CCN(c2cc(C)c3cc(NC(=O)c4cccc([N+](=O)[O-])c4)ccc3n2)CC1,0.859
17,CC1=C(C(=O)Nc2ccc(C)cc2C)C(c2ccc([N+](=O)[O-])cc2)n2ncc(C(=O)Nc3ccc(F)cc3)c2N1 (stereo unspecified),0.639
18,CCC(C)(C)n1nnnc1C(c1cc2cc(C)cc(C)c2[nH]c1=O)N1CCN(c2ccc(O)cc2)CC1 (stereo unspecified),0.771
19,COc1cccc(CN2CCN(C(c3ccccc3)c3ccccc3)CC2)c1O,0.718
20,CCOC(=O)c1ccc(N2CCN(c3cc(C)ccc3C)CC2)c(NC(=O)Nc2ccc(Cl)cc2)c1,0.826
21,O=C(Nc1ccc(Oc2ccc(OC(F)(F)F)cc2)cc1)C1CC1,0.693
22,CCc1ccc2c(c1)c1nnc(SCC(=O)NCCOC)nc1n2C,0.841
23,Oc1c2c(nc3cc(-c4ccc(Br)cc4)nn13)CCCC2,0.677

row,SMILES,viability index
1,Brc1ccc(-c2cn3c([n+]2Cc2ccccc2)SCCC3)cc1,0.509
2,Oc1c(CN2CCN(Cc3ccc4cccnc4c3O)CC2)ccc2cccnc12,0.601
3,O=C1CSC2=NCN(c3cccc(Cl)c3)CN12,0.781
4,CCCCNCC(O)(c1ccc(Cl)cc1)c1ccc(Cl)cc1,0.724
5,CCN(CC)CCCNC(=S)N(Cc1ccc(F)cc1)Cc1cc2cc(C)cc(C)c2[nH]c1=O,0.76
6,Oc1ccc(Nc2nc(NCc3ccco3)c3ccccc3n2)cc1,0.727
7,CCc1ccccc1N=C1c2c(cccc2[N+](=O)[O-])C(=O)C1C(C)=O (stereo unspecified),0.759
8,Cc1nc2c(c(C)nn2C)c(C)c1CCC(=O)N1CCCC1,1.09
9,CC(=NNC(=N)N)c1ccc(C)cc1,0.992
10,Cc1ccc(O)c(C(=O)c2c[nH]c(-c3nc4ccccc4[nH]3)c2)c1,0.147
11,CCCCOc1ccc(N(C(C)=O)C2=C(N3CCCCC3)C(=O)c3ccccc3C2=O)cc1,0.301
12,O=[N+]([O-])c1cc(C(F)(F)F)cc([N+](=O)[O-])c1Sc1cccc2cccnc12,0.0789
13,O=C(Nc1ccc2c(c1)CN(C1CCSCC1)CC2)C1(c2ccccc2)CC1,0.952
14,Cc1cc(Nc2ccc(Br)cc2)n2nc(C)nc2n1,0.865
15,CSc1cccc(NC(=O)C2C3C=CC4(O3)C2C(=O)N(C2CC2)C4C(=O)NC2CCCCC2)c1 (stereo unspecified),1.16
16,COC(=O)c1ccc(N(C(=O)Cc2c[nH]c3ccccc23)C(C(=O)NC2CCCCC2)c2ccccc2F)cc1 (stereo unspecified),0.96
17,O=C(Nc1ccc2nc3n(c(=O)c2c1)CCCCC3)C(=O)N1CCN(c2cccc(Cl)c2)CC1,0.432
18,CC1CCN(Cc2c(O)ccc3cc(-c4nc5ccccc5s4)c(=O)oc23)CC1,0.792
19,Nc1nc(Nc2cccc(Cl)c2)n[nH]1,0.673
20,O=C(CNCCc1ccccc1)NC(c1ccccc1)c1ccccc1,0.761
21,CC(C)Nc1ccc(Nc2ccnc3cc4ccccc4cc23)cc1,0.484
22,CCc1nn(-c2ccccc2)c2nc(-c3cc(Br)ccc3O)c3cc(OC)c(OC)cc3c12,0.707
23,COc1cc(OC)cc(N2C(=O)N(Cc3ccc(C(C)(C)C)cc3)c3ccccc3S2(=O)=O)c1,0.9

row,SMILES,viability index
1,Cc1ccc(C2Sc3ccccc3N=C3C2=C(O)c2ccccc23)cc1 (stereo unspecified),0.633
2,OC(CNC1CCCCC1)Cn1c2ccccc2c2ccccc21 (stereo unspecified),0.585
3,Brc1ccc2[nH]c3c(NCCCN4CCOCC4)ncnc3c2c1,0.722
4,COc1cccc(C2C(C(=O)Nc3ccccc3)=C(C)N=c3sc(=Cc4c[nH]c5ccccc45)c(=O)n32)c1 (stereo unspecified),1.19
5,O=C(C1CCC(Cn2c(=S)[nH]c3ccccc3c2=O)CC1)N1CC=C(c2ccccc2)CC1 (stereo unspecified),1.31
6,O=C(Nc1nccs1)c1cc(-c2cccnc2)nc2ccc(Br)cc12,1.05
7,COCCN1C(=O)c2ccccc2C(C(=O)Nc2cccc(C(F)(F)F)c2)C1c1cccs1 (stereo unspecified),1.08
8,CCOc1ccc(C(=O)Nc2cccc(-c3nc4cc(C)ccc4o3)c2C)cc1,1.03
9,C=CCNC(=O)c1cc(OCc2ccccc2)c(OCc2ccccc2)c(OCc2ccccc2)c1,0.81
10,COc1cc2nc(NCc3ccccc3)n3nc(-c4cccnc4)nc3c2cc1OC,0.863
11,COc1ccc(C=Cc2ccc3ccccc3[n+]2C)cc1OC,0.721
12,CCOC(=O)C1=CN(c2cc(C)ccc2C)C=C(C(=O)OCC)C1c1ccccc1OC,0.66
13,CCN1CCN(CCCNC(=S)Nc2ccc3nc(N4CCCC4)cc(C)c3c2)CC1,0.817
14,OCCNc1nc(Nc2ccccc2)nc2ccccc12,0.743
15,COc1cccc2c(C)nc(NC(=N)N)nc12,1.05
16,Nc1ccc(N2CCCCCC2)cc1,0.917
17,COc1ccc(C2=C(Nc3ccc(Br)c(C)c3)c3ccccc3C2=O)cc1,0.542
18,COc1ccc(NS(=O)(=O)c2cccc(C(=O)Nc3ccccc3[N+](=O)[O-])c2)cc1,0.79
19,FC(F)(F)c1ccc(Nc2nnnc3ccccc23)cc1,1.04
20,Cc1cc(C)c2c(c1)-c1c(ssc1=S)C(C)(C)N2C(=O)c1ccccc1,0.74
21,O=C(Nc1ccccc1)c1ccccc1OCC(O)Cn1c2ccccc2c2ccccc21 (stereo unspecified),0.981
22,CCOC(=O)c1c(NC(C)=O)sc2c(O)c(CNC3CCCCC3)ccc12,0.261
23,O=C(c1cc2nc(-c3ccccc3)cc(C(F)(F)F)n2n1)N1CCN(Cc2ccccc2)CC1,1.01

row,SMILES,viability index
1,O=[N+]([O-])c1cccc(C(O)CNCc2ccc3c(c2)OCO3)c1 (stereo unspecified),0.676
2,CC(C)CN1C(=O)c2ccccc2C(C(=O)Nc2cccc(C(F)(F)F)c2)C1c1cccs1 (stereo unspecified),0.301
3,CN1CCN(c2nc(NN=Cc3cccc(Cl)c3)nc(Nc3ccc([N+](=O)[O-])cc3)n2)CC1,0.462
4,CN1C(=CC=Cc2oc3ccccc3[n+]2C)Oc2ccccc21,0.594
5,COC(=O)C1CCCN1S(=O)(=O)c1ccc2ccccc2c1 (stereo unspecified),1.05
6,CCOC(=O)C1=C(C)NC2=C(C(=O)C(C(=O)OCC)C(c3cccc(OC)c3)C2)C1c1cc(OC)c(OC)c(OC)c1 (stereo unspecified),1.06
7,CC(=O)N(C1=C(N2CCCCC2)C(=O)c2ccccc2C1=O)c1ccc(F)c(F)c1,0.837
8,CC(Nc1ccccc1)C(=O)Nc1cc(C(F)(F)F)ccc1Cl (stereo unspecified),0.902
9,COc1cc(OC)c(NC(=O)C2c3ccccc3C(=O)N(CC(C)C)C2c2cccs2)cc1Cl (stereo unspecified),0.0683
10,Cc1ccc(C)c(Oc2c(C(F)(F)F)oc3c(CN4CCN(C)CC4)c(O)ccc3c2=O)c1,0.467
11,OCc1nc2ccccc2n1Cc1ccccc1F,1.15
12,CCOC(=O)C1=C(C)NC(=Cc2cc(C)n(-c3cccc(Br)c3)c2C)C1=O,0.463
13,O=C(Nc1nc2ccccc2s1)c1ccc(S(=O)(=O)N2CCOCC2)cc1,1.39
14,OC(CN1CCN(Cc2ccccc2)CC1)Cn1c2ccc(Cl)cc2c2cc(Cl)ccc21 (stereo unspecified),0.394
15,C[n+]1ccc(C=Cc2c[nH]c3ccccc23)cc1,0.78
16,CCOc1ccc(NC(=O)C(C)Sc2nc3ccccc3[nH]2)cc1 (stereo unspecified),0.906
17,CCC(C)(C)c1ccc(OCCCC[n+]2ccc(C)cc2)c(C(C)(C)CC)c1,0.551
18,CC(=O)N(C1=C(N2CCC(C)CC2)C(=O)c2ccccc2C1=O)c1cccc(F)c1,0.892
19,O=C(Nc1ccc2c(c1)OCO2)c1cc2cc(C3(O)CCN(CC4CCCCC4)CC3)ccc2o1,1.06
20,Cc1ccccc1Oc1ccc(S(=O)(=O)NC(CC(C)C)C(=O)O)cc1 (stereo unspecified),0.504
21,CC(=O)Nc1ccc2c(c1)CCCC2,1.08
22,Cc1ccc(NC(=O)C2c3ccccc3C(=O)N(CC(C)C)C2c2cccs2)c(Cl)c1 (stereo unspecified),0.289
